Source: ChEMBL document CHEMBL4888484, “Replenishing the malaria drug discovery pipeline: Screening and hit evaluation of the MMV Hit Generation Library 1 (HGL1) against asexual blood stage Plasmodium falciparum ,using a nano luciferase reporter read-out” (2022)
The whole screen tested about 150,000 compounds, of which about 540 (0.36%) showed an effect of 50% or more. Some of the results follow.

system: Plasmodium falciparum; test: Primary screen in NF54 nanoGlo assay, in single point, at 2uM, 72h; a lower Z score goes with more inhibition; format: functional, Erythrocyte; conditions: timepoint 72 hour

SMILES	% Inhibition	Z score
COCCn1cnnc1CNC(=O)[C@@]1(C)CC[C@@H](C(=O)N(C)C)C1(C)C	10%	-1.91
CC(C)Cn1cncc1CN1CCO[C@H](c2ccc(Cl)cc2)C1	-13%	1.83
O=C1CCC(=O)N1C1CC2CCC(C1)N2S(=O)(=O)c1cccnc1 (centres undefined)	-1%	0.06
Cn1c(CN(CCC2CCCCC2)CC(N)=O)cc(=O)n(C)c1=O	-5%	0.59
Cc1ccc(Nc2nc(C)c(NC(=O)c3ccc(Cl)cc3)c(Nc3ccc(C)cc3)n2)cc1	-15%	2.91
COCCN1C(=O)c2ccccc2C(C(=O)N2CCN(c3ccccn3)CC2)C1c1ccc(F)cc1 (centres undefined)	15%	-2.27
Cc1cnc(C(NC2CCN(CC(F)(F)F)C2)C2CC2)s1 (centres undefined)	-10%	1.54
COc1ccccc1CNC(=O)c1ccccc1N1C(=O)[C@@H]2Cc3c([nH]c4ccccc34)C(c3ccccc3)N2C1=O (some centres undefined)	-5%	0.41
Cc1cccc(OC2(C(=O)O)CCN(c3ncnc4[nH]ccc34)CC2)c1	6%	-0.81
Cc1cc(NC(=O)NCCc2cscn2)n(Cc2ccccn2)n1	-1%	0.1
CCCn1c(C)nnc1CN[C@@H](C)c1cccc(F)c1F	-4%	0.41
CS(=O)(=O)Cc1ccc(N2CC(c3ccncc3)C2)nc1	-8%	1.09
O=C(c1ccc2nccnc2c1)N1CC2CC1CS2(=O)=O (centres undefined)	-6%	0.69
CC(C)(C1=CCCCC1)c1noc(C[C@H]2CCC(=O)NC2)n1	-12%	1.65
Oc1ccc(Cc2nc(-c3ncc[nH]3)no2)cc1	-6%	0.72
COc1ccc(S(=O)(=O)N2CC(NC3CCC4CN(Cc5ccccc5)CC43)C2)cc1 (centres undefined)	44%	-3.93
Cc1cccnc1C[C@H](C)Nc1nc2c(s1)c(C)nn2C	-13%	1.65
CN1CCCC2(CCN(C(=O)CCc3nc4ccccc4s3)CC2)[C@H]1C(N)=O	-7%	0.81
O=C1CCN(C(=O)Cc2ccc(Br)cc2)CCN1	-9%	1.86
CCc1cnc(C)nc1N1CCC(c2nnc(Cn3cncn3)n2C)CC1	-11%	1.45
CC(C)N1C(=O)CC(C(=O)NOC2CCCCO2)C1c1ccc(Cl)c(F)c1 (centres undefined)	-6%	0.66

SMILES	% Inhibition	Z score
O=C(Nc1ccc(-c2ccn[nH]2)cc1)N1CCN[C@@H]2CS(=O)(=O)C[C@@H]21	-5%	0.61
Brc1ccc(-c2oc(-c3ccccc3)cc2-c2nc3ccccc3[nH]2)cc1	4%	-0.84
CC(C)Cn1[nH]c(CC(=O)N[C@]2(C)C[C@H](C)CC(C)(C)C2)cc1=O	-8%	1.06
COC1(C)CC(NS(=O)(=O)N(C)C)C1(C)C (centres undefined)	-3%	0.53
Cc1ccc(NC(=O)c2ccc3c4c(cccc24)CC3)nc1	-8%	1.07
CCN(CC)c1ncccc1CNC(=O)c1cccc(Cl)c1	4%	-0.76
O=C(c1ccc(Cl)cc1)C1CN(c2ccccc2)CC1c1ccccc1F (centres undefined)	-4%	0.71
COc1ccc(C(=O)NC[C@H]2OC[C@@H](NCc3ccc(F)cc3)[C@@H]2O)cc1	-8%	1.21
CCc1nc(CC#N)nc(N2CCN(C(=O)c3ccco3)CC2)c1Cc1cccc(C)c1	-20%	1.92
CCCCn1nc(C2CCCC2)nc1C[C@H]1CN(C(C)C)CCO1	5%	-0.81
C=CCN1CCC[C@H]1C(=O)N(C)CC(C)(C)CO	-18%	1.67
OC(COc1ccc(C2C=CCC2)cc1)CN1CCCCC1 (centres undefined)	15%	-1.91
CNC(=O)c1ccc(NCc2cccc(C)c2Br)nn1	5%	-0.91
CCN(Cc1nc(C)no1)C(=O)Nc1ccc(Cl)cc1C(F)(F)F	-2%	0.32
O=C(NCc1cn(-c2ccncc2)nn1)c1ccc(Oc2nccs2)cc1	-2%	0.45
COc1ccc(-n2nc(C)c3c2NC(=O)C[C@@H]3c2ccc(O)cc2)nn1	-4%	0.53
Cn1cncc1Cc1noc(-c2ccco2)n1	31%	-3.46
CCN(CC)CCN(CCC(F)(F)F)Cc1nc(-c2ccco2)no1	1%	-0.16
CCC1=C(c2ccc(C)cc2)S(=O)(=O)N=C1NCC(=O)NCc1ccc(OC)cc1	-11%	1.11
CC[C@@H](COC)Nc1cccc(S(F)(F)(F)(F)F)c1	5%	-0.71
CCn1ncc(-c2ccnc3c4c(C)cc(C(F)(F)F)nc4nn23)c1C	-10%	1.14

SMILES	% Inhibition	Z score
CCCCc1ccc(N2C(=O)[C@@H]3C(CC(N)=O)NC4(C(=O)Nc5c(Cl)cc(C)cc54)[C@@H]3C2=O)cc1 (some centres undefined)	-6%	0.79
CCCn1nc(C)c(CNC(=O)Nc2ccc(CN3CCOCC3)cc2)c1C	-3%	0.48
O=C1NCCCCCCN(C(=O)NCCc2ccccc2)[C@H]2CCCC[C@@H]12	3%	-0.41
CN(Cc1noc(C2CCC2)n1)C[C@H]1CCCN1Cc1ccccc1	-8%	1.08
CCc1cc(C(=O)N2CCC(c3nnc(Cn4ccnc4C)n3C)CC2)on1	-8%	1.47
CC[C@@H](COC)NC(=O)CCC(=O)Nc1c(C)cc(C)cc1C	19%	-2.39
O=C(C1c2ccccc2Oc2ccccc21)N1CC[C@H](n2nccn2)C1	8%	-1.1
CC1=C[C@@H](CNC(=O)COCC(=O)O)[C@H](C(C)C)C[C@H]1Cc1nc2ccccc2[nH]1	2%	-0.2
Cn1cc(S(=O)(=O)NC[C@H]2CCN(c3ccccc3)C2)cn1	-1%	0.22
CCc1cccc(C)c1NC(=O)N1CCC=C(F)C1	-1%	0.22
CC(C)(C)OC(=O)NC/C(N)=N/OC(=O)c1cc(F)ccc1C(F)(F)F	-3%	0.65
COc1cc(NC(=O)[C@H]2CC[C@@H](c3ccccc3)O2)ncn1	-16%	2.95
O=C1[C@@H](N2CC[S+]([O-])CC2)CCN1c1ccc(Cl)cc1Cl	-10%	1.61
COc1ccc(C(=O)N2CC(Oc3ccccc3-c3nc(C4CC4)no3)C2)cn1	-11%	1.28
CC(C)(C)c1cc(CN2C[C@H](O)[C@@H](F)C2)n[nH]1	-11%	1.3
COc1ccc(NC(=O)c2ccco2)cc1Nc1cc(C)nc2nc(-c3cccc(C)c3)nn12	8%	-1.19
Cc1cccc2[nH]c([C@@H]3CCCN3CC(=O)Nc3ccn(C)n3)nc12	2%	-0.44
Cc1ccc(-c2cc(CN(C(=O)c3ccco3)C3CC3)no2)cc1C	0%	-0.04
CC1CC(C(=O)N2CCC(C3CCOC3)C2)CC(=O)N1 (centres undefined)	-6%	0.58
O=S(=O)(Nc1ccccc1-n1cncn1)c1ccc2c(c1)CCCC2	-1%	0.17
CCCS(=O)(=O)N1CCCC[C@H]1C(=O)Nc1cnc2ccccc2c1	-13%	1.26

SMILES	% Inhibition	Z score
Cc1onc(-c2ccccc2)c1C(=O)N1CC(C)OC(C)C1 (centres undefined)	-19%	2.49
Cc1noc([C@H](C)NC(=O)c2cn(C)nc2-c2ccco2)n1	1%	-0.12
Cc1ccc(Cn2nc(-c3ccc(C(N)=O)cc3)nc2[C@@H]2COCCO2)cc1	-5%	1.02
CCn1nnc2ccc(-c3noc(Cc4ccc(F)cc4)n3)cc21	-8%	1.37
C[C@@H](CNC(=O)C1CCC(Cn2c(=O)[nH]c3ccsc3c2=O)CC1)c1ccccc1 (some centres undefined)	-15%	1.29
CC(C)C(C(=O)NCC1COCCO1)n1cnc2cc(F)c(F)cc21 (centres undefined)	11%	-1.6
CC(CCc1cccc(F)c1)NC(=O)N1CCCC(CC(N)=O)C1 (centres undefined)	10%	-1.23
CCN1CCN(C[C@@H]2CN(Cc3[nH]c4ccc(C)cc4c3C)C[C@@H]2CO)CC1	5%	-0.76
Cc1ccc(C)c(CC(=O)N2C[C@@H]3CC[C@H]2CN(S(=O)(=O)N(C)C)C3)c1	-6%	0.89
CCn1c(C)c(-c2nc(C3CC3)no2)c(S(=O)(=O)Nc2ccc(OC)cc2)c1C	-9%	1.85
Cn1cnnc1C[C@H]1CCN(S(=O)(=O)Cc2ccccc2)C1	-3%	0.42
CCn1ccc(C(=O)NC2CCN(C3=NS(=O)(=O)C(c4ccccc4)=C3C)CC2)n1	1%	-0.11
COc1ccc(C(=O)NCc2cccc(Cl)c2)cc1CN1CC(=O)N2CCC[C@H]2C1=O	-13%	2.37
CCn1cc(CNC[C@H](C)c2nc3ccccc3o2)cn1	-7%	0.77
C1CCN(CCN2CCOC[C@@]23CCOC3)CC1	9%	-1.7
CCC(CC)(C(=O)O)C(=O)N1CCCC(C(C)N)C1 (centres undefined)	-5%	0.83
C[n+]1cc(-c2ccc3ccccc3n2)c(C#N)c2ccccc21	34%	-4.97
CC(C)N(C)Cc1nc(C2CN3CCCCC3CO2)no1 (centres undefined)	-14%	1.57
COc1cccc(NC(=O)[C@@H](C#N)C(=O)c2ccc(C)o2)c1	6%	-0.8
